The source gives no read counts; variants with many changes may rest on few reads.
B1: CPEB3 Ribozyme (parent)
chain: UAACAGGGGGCCACAGCAGAAGCGUUCACGUCGCAGCCCCUGUCAGAUUCUGGUGAAUCUGCGAAUUCUGCUGUAUAUCUC

Variants of: B1
Assay: self-cleavage, relative activity (ratio to wild type); higher = more cleavage; in vitro, sequencing
Method in brief: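 Relative activity was defined as the cleaved/total read fraction for a variant divided by the same fraction for the unmutated ribozyme. CPEB3 self-cleaving ribozyme libraries were made by rounds of error-prone PCR, barcoded, and transcribed in vitro with T7 RNA polymerase for 5 hours at 37°C, and cleavage ran through transcription plus a 15 min DNase I step before EDTA. Illumina sequencing of template-switched reverse transcripts gave the reads, and DNA sequencing mapped the barcodes. Averages come from three batches, using variants with at least 5 reads.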

Row | Variant | self-cleavage
1 | UAACAGGGGGCCACAGCAGUAGCGUUGACGUCGCAGCCCCUGUCAGUUUCUGGUGAAUCUGCGAAUUCUGCUGUAUAUCUC [A20U C27G A47U] | 0.17
2 | UAACAGGGGGCCACAGCAGUAGCAUUCAUGUCGCAGCCCCUAUCAGAUUCUGGUGAAUCUGCGAAUUCUGCUGUAUAUCUC [A20U G24A C29U G42A] | 0.13
3 | UAACAGGGGGCCACAGCAGUAGCGUUCACGUCGCAGCCCCUAUCAGAUUCUGGUGAAUGUGCGAAUUCUGCUGUAUGUCUC [A20U G42A C59G A77G] | 0.13
4 | UAACAGGGGGCCACAGCAGUAGCGUUCACGUCGCAGCCUCUGUCAGAUUCUGGUGUAUCUGCGAAUUCUGCAGUAUAUCUC [A20U C39U A56U U72A] | 0.08
5 | UAACAGGGGGCCACAGCAGUAGCGUUCACGUCGCAGCCCCUGUCAGAUUCUGGUGAAUCUGUGAAUUCUGCCGUGUAUCUC [A20U C62U U72C A75G] | 0.13
6 | UAACAGGGGGCCACAGCAGUAGCGUUCACGUCGCAGCCCCUGUCAGAUUUUGGUGAAUCUGCGGAUUCUGCUGUAUAUCUC [A20U C50U A64G] | 0.13
7 | UAACAGGGGGCCACAGCAGUAGCGUUCAUGUCGCGGCCCCUGUCAGAUUCUGGUGAAUCCGCGAAUUCUGCUGUAUACCUC [A20U C29U A35G U60C U78C] | 0.08
8 | UAACAGGGGGCCACAGCAGUAGCGUUCACCUCGCAGCCCCUGCCAGAUUCUGGUGAAUCUGCGAAUUCCGCGGUAUACCUC [A20U G30C U43C U69C U72G U78C] | 0.05
9 | UAACAGGGGGCCACAGCAGUAACGUUCACGUCGCAGCCCCUGUCAGAUUCAGGCGAAUCCGCGAAUUCUGCUGUAUAUCCC [A20U G22A U51A U54C U60C U80C] | 0.08
10 | UAACAGGGGGCCACAGCAGUAGCGUUCACGUCGCAGCCCUUGUCAGAUUCUGGUGAAUCUGCAAAUUCUGCUGUAUAUCUC [A20U C40U G63A] | 0.31
11 | UAACAGGGGGCCACAGCAGUAGCGUUCACGUUGCAGCCCCUGACAGAUUCUGGUGAAUCUGCGAAUUCUGCUGUAUAUCUC [A20U C32U U43A] | 0.15
12 | UAACAGGGGGCCACAGCAGUAGCGUUCACGUCGCAGCCCCUGUCACAUUCUGGUGAAUCUGCGUAUUCUGCUGUAUAUCUC [A20U G46C A64U] | 0.08
13 | UAACAGGGGGCCACAGCAGUAGCGUUCACGUUGCAGCCCAUGUCAGACUCUGGUGAAUCUGCGAAUUCUGCUAUAUAUCUC [A20U C32U C40A U48C G73A] | 0.1
14 | UAACAGGGGGCCACAGCAGUAGCGUUAACGUCGCAGCCCCUGUCAGAUUCUGGUGAGUCUGCGAAUUCUGCUGUAUAUCUC [A20U C27A A57G] | 0.14
15 | UAACAGGGGGCCACAGCAGUAGCAUUCACGCCGCAGCCCCUGUCAGAUUCUGGUGAAUCUGCGCAUUCUGCUGUAUAUCUC [A20U G24A U31C A64C] | 0.08
16 | UAACAGGGGGCCACAGCAGUAGCACUCACGUCACAGCCCCUGUCAGAUCCUGGUGAAUCUGCGAAUUCUGCUGUAUAUCUC [A20U G24A U25C G33A U49C] | 0.14
17 | UAACAGGGGGCCACAGCAGUAGCGUUCACGUCGCAGCCCCUGUCAGAUUCUGGUUAAUCGGCGAAUUCCGCUGUAUAUCUC [A20U G55U U60G U69C] | 0.08

Row | Variant | self-cleavage
18 | UAACAGGGGGCCACAGCAGUAGCGUUCACGUCGCAGCCCCUGUCAGAUUCUAGUGAAUCUGCGAAUUCUGCUGUAAAUCUC [A20U G52A U76A] | 0.34
19 | UAACAGGGGGCCACAGCAGUAGCGUUCACGUCGCACCCCCCGUCAGAUCCUGGUGAAUCUGCGAAUUCUGCUGUAUAUCCC [A20U G36C U41C U49C U80C] | 0.26
20 | UAACAGGGGGCCACAGCAGUAGCGUUCACGUCGCAGCCCUUGUCAGAUUCUGGUGAAUCUGCGAAUUCUGCUGUAUAUCCC [A20U C40U U80C] | 0.32
21 | UAACAGGGGGCCACAGCAGUAGCGUUCACGUCGCAGCCCCUGUCAUAAUCUGGUGGAUCUGCGAAUCCGGCUGUAUAUCUC [A20U G46U U48A A56G U67C U69G] | 0.19
22 | UAACAGGGGGCCACAGCAGUAGCGUUCACGUCGCAGCCCGUGUCAGAUUCUGGUGAAUCUGCGAACUCCGCUGUAUAUCUC [A20U C40G U66C U69C] | 0.19
23 | UAACAGGGGGCCACAGCAGUAGCGUUCACGUCGCACCCCCUGUCCGAUUCUUGUGAAUCUGCGAAUUCUGCUGUAUAUCAC [A20U G36C A45C G52U U80A] | 0.04
24 | UAACAGGGGGCCACAGCAGUACCGCUCACGUCGCAGCCCCUGUCAGACUCUGGUGAAUCUGCGUAUUCUGCUGUAUACCUC [A20U G22C U25C U48C A64U U78C] | 0.04
25 | UAACAGGGGGCCACAGCAGUAGCGUUCACCUCGCAGCCCCUGUCAGAUUCUCGUGAAUCUGCGAAUUCUGCUGUAUAUCUC [A20U G30C G52C] | 0.08
26 | UAACAGGGGGCCACAGCAGUAUCGUACACGUCGCAGCCCCUGUCAGAUUCUGGUGAAUCUGCGAAUUCUGCUGUAUAUCCC [A20U G22U U26A U80C] | 0.21
27 | UAACAGGGGGCCACAGCAGUAGCGUUCACUCCGCAGCCCCUGUCAGAUCCUGGUGAAUCUGCGAAUUCAGCUGUAUAUCUC [A20U G30U U31C U49C U69A] | 0.17
28 | UAACAGGGGGCCACAGCAGUAGCGUUCACGUCACCGCCCCUGUCAGAUUCUGGUGAAUCUGCGAAUUCUGCUGUAUAUCUC [A20U G33A A35C] | 0.14
29 | UAACAGGGGGCCACAGCAGUAGCGUUCACGUCGCAGCCCCUGUCAGAUUCUUGGGAGUCUGCGAAUUCUGCUGUAUAUCUC [A20U G52U U54G A57G] | 0.18
30 | UAACAGGGGGCCACAGCAGUAGCGUUCACGUCGCAGCCCCUGUCAAAUUCUGGUGAAUCUGCGAAUUCCGCUGUAUAUCUC [A20U G46A U69C] | 0.16
31 | UAACAGGGGGCCACAGCAGUAGCGUUCACAACGCAGCCCCUGUCAGAUUCUGGUGAAUCUGCGAAUUCUGCUGAAUAUCUC [A20U G30A U31A U74A] | 0.16
32 | UAACAGGGGGCCACAGCAGUAGCGUUUACGUCGCAGCCCCUGUCAGAUUCUGGUGAAUCUGUGAAUUCUGCUGUAUAUCUC [A20U C27U C62U] | 0.11
33 | UAACAGGGGGCCACAGCAGUAGCGUUCACGUCGCAGCCCCUGUCAGAUUCUGGUGAAUCUGCAAAUACUGCUGUAUAUCCC [A20U G63A U67A U80C] | 1.1
34 | UAACAGGGGGCCACAGCAGUAGCGUUCACGUCGCAGCCCCUGUCAGAUUCUGGUAAAUCUGCGAAUUCUGCUGAAUACCUC [A20U G55A U74A U78C] | 0.18

— the RNAGym collection of RNA variant scans (doi:10.1093/nar/gkz1192)
